Assay results from patent publication US9839646B2, “Small molecule enhancer for dendritic cell cancer vaccines” (priority 2011, dated 2017).
Read-outs that look alike come from different tables or passages of the source.

Experiments:
prolyl oligoproteases = assay: Inhibition of prolyl oligoproteases (FIG. 1); format: biochemical
immune system = assay: Immune stimulation (FIG. 1)
MB49 = MB49 subcutaneous tumor model; format: in vivo; details: for anti-tumor activity: 20 μg dose
Text: Mice were orally gavaged on days 3-7 and 10-14. Tumor volume was monitored by caliper measurements. […].

in vivo = details: Sprague Dawley, rat; for MTD: po
[1] = Maximum tolerated dose study in Sprague Dawley rats; details: for adverse effects: 0.05 mg/kg PO
[2] = tested on: proinflammatory cytokine and chemokine mRNA; details: 2 hours after oral administration; tumor and lymph node tissue; cited from earlier work
RMS = assay: Established RMS tumor model with RMS DC vaccine; format: in vivo, C57BL/6 mice
Experimental: C57BL/6 mice bearing established RMS were vaccinated intramuscularly in a hind limb with RMS DC vaccine on day 10 after tumor inoculation. […] Another group of mice received vaccine but no compounds and groups of unvaccinated mice received compounds or vehicle. 8 replicate mice were treated in each regimen.
The RMS cell line was derived from Ink4a/Arf^−/− mice transgenic for hepatocyte growth factor/scatter factor (HGF/SF) that develop malignant RMS with high penetrance. DC vaccine will be prepared by incubating bone marrow derived DCs with apoptotic bodies generated from RMS cells as previously described. Tumor growth was monitored by caliper measurement every 2 days.

G-CSF and CXCL1 = assay: Cytokine assay in BALB/c mice (serum ELISA); format: in vivo
Experimental: Method for Cytokine Assay in BALB/c Mice. […] Blood was collected by cardiac puncture at various times post-dose and serum was prepared for analysis by ELISA. The samples were assayed for mouse mouse cytokines G-CSF and mouse CXCL1 using ELISA kits from R&D Systems (Cat. No. MCS00 and MKC00B respectively). All measurements were made in duplicate. Serum samples were diluted as necessary to obtain values within the range of the assays. Optimal dilutions required varied depending on the test agent and can range from no dilution for control samples or test agents with no activity to 1:1000 dilution for very high samples. […] The dose response varies with test agent but 20 μg/mouse dose is an acceptable baseline dose for response assessment. Typically 6 animals are measured for each agent at each time point.

[3] = C57BL/6 mice, cited from earlier work
tumors = assay: PT-100 tumor regression, early stage and established tumors (FIG. 2, 3)
[4] = Mouse toxicity, plasma vs. dose, 5-day oral dosing; format: in vivo, C57BL/6 mice; details: for body weight over 5 day treatment: mouse, in vivo; for survival: oral gavage daily for 5 days, up to 40 mg/kg ARI-4175, up to 10 mg/kg PT-100
Text: Mouse Toxicity Plasma Vs. Dose Figures. […]. Plasma concentrations are approximately proportional to dose over the range tested.

RMS M3-9-M [5] = assay: Tumor-primed T cell transfer, late treatment RMS M3-9-M model; format: in vivo, mice
Th17 cells = details: in vitro; V. Kuchroo, unpublished data; cited from earlier work
HCT-116 xenograft tumors = assay: Colon cancer xenograft in nude mice
RMS M3-9-M [6] = assay: DC vaccination late treatment model, RMS M3-9-M; format: in vivo, mice
HCT116 tumor cells = assay: Cytotoxicity of splenocytes from treated mice; format: cell-based, C57BI/6 non-tumor-bearing mice; details: mice treated with ARI-4175 and/or cetuximab
NK cells = assay: NK cell marker expression in treated nude mice; format: in vivo; details: NK cells from treated nude mice
human NK cells = assay: CD69 induction on human NK cells in vitro; format: cell-based; details: cultured human PBLs, 1 day incubation
Experimental: The results shown are with cultured human PBLs from two healthy donors after a 1 day incubation.

RMS M3-9-M [7] = assay: Adoptive T cell transfer in Rag1-/- recipients, RMS M3-9-M; format: in vivo, Rag1-/- mice
Text: (A) Female Rag1^−/− mice received naïve or RMS-primed T cells one day after tumor challenge.

DLD-1 = details: 10 nM-200 μM, three days, alone or in combination with cetuximab
RMS M3-9-M [8] = assay: Tumor rechallenge, M3-9-M RMS model; format: in vivo, C57BL/6 mice; details: 200 μg oral on days 3-7, 17-21, 24-28, 31-35; rechallenge day 56, no additional treatment; n=7, p=0.0175
Experimental: An effective vaccine for cancer would have the advantage of establishing immunological memory that can protect against disseminated metastasis or tumor regrowth following clinical response to initial treatment. […]. Mice were monitored for secondary tumor growth for a further 20-30 days without any additional therapeutic treatment. […] Groups of 4 mice were tested for immunological memory. […].

DLD-1 xenograft tumors = assay: Colon cancer xenograft in nude mice
HCT-116 = details: 10 nM-200 μM, three days, alone or in combination with cetuximab
[9] = 0.01 mg/kg SQ, 48 hours post-dose
[10] = 0.05 mg/kg SQ, within first 24 hours, six rats
[11] = combination with cetuximab, not statistically significant
[12] = single agent, ARI-4175 100 μg oral q.d or b.i.d, cetuximab 200 μg per week i.p.

With `C[C@H](N)C(=O)N1CCC[C@H]1B(O)O` [Ala-boroPro] the “inhibition of prolyl oligoproteases” value (prolyl oligoproteases) was “inhibit” and the “stimulation of the immune system” value (immune system) was “does not stimulate”.
With `CC(C)[C@H](N)C(=O)N1CCC[C@H]1B(O)O` [PT-100, Val-boroPro, reference compound] the anti-tumor activity (MB49; oral gavage days 3-7 and 10-14) was “induce anti-tumor activity”, the toxicity (MB49; 200 μg dose) was “toxic” and the MTD (in vivo) was 0.05 mg/kg. For the same compound, the deaths [1, 9] was “did not result in any deaths”, the deaths ([1]; 0.025 mg/kg SQ) was “no deaths” and the adverse effects [1] was “no adverse effects”. The deaths [1, 10] was “at least one animal death”, the MTD ([1]; SQ, rats, maximum dose with 100% survival) was 0.025 mg/kg and the “inhibition of prolyl oligoproteases” value (prolyl oligoproteases) was “inhibit”. The “expression of proinflammatory cytokine and chemokine mRNA” value [2] was “stimulates expression”, the “mice with reduced tumor growth” value (RMS; 1 mg/kg with the vaccine) was 2 out of 6 and the “tumor regression by day 25” value (RMS; 1 mg/kg, either with or without DC vaccination) was “failed to produce tumor regression”. For the same compound, the “stimulation of G-CSF and CXCL1/KC” value (G-CSF and CXCL1; BALB/c mice, serum) was “stimulates”, the “stimulation of the immune system” value (immune system) was “potent immune stimulator” and the MTD [3] was ~2 mg/kg. The MTD ([3]; end point mortality) was ~2 mg/kg/day, the “regression of established tumors” value (tumors; PT-100+Dendritic Cell (DC) vaccine) was “produces regression” and the “regression of early stage tumors” value (tumors; PT-100 alone) was “complete regression”. For the same compound, the “regression of established tumors” value (tumors; PT-100 alone) was “not of established tumors”, the “body weight over 5 day treatment” value [4] was “significant weight loss” and the survival [4] was 100%.
With `CC(C)(C)[C@H](N)C(=O)N1CCC[C@H]1B(O)O` [ARI-4175, t-butylGly-boroPro] the anti-tumor activity (MB49; oral gavage days 3-7 and 10-14) was “induce anti-tumor activity”, the full regression (MB49; 200 μg dose, oral gavage days 3-7 and 10-14) was 5 of 5 and the MTD at 48 h (in vivo) was 0.01 mg/kg. The MTD (in vivo) was 0.1 mg/kg, the deaths [1, 9] was “did not result in any deaths” and the deaths ([1]; 0.025 mg/kg SQ) was “one death”. For the same compound, the adverse effects [1] was “no adverse effects”, the deaths [1, 10] was “at least one animal death” and the deaths ([1]; 0.25 mg/kg PO) was “one death”. The “tumor volume compared to saline” value (RMS M3-9-M [5]; ARI-4175 alone, n=10, p=0.0019) was “significantly smaller tumors”, the survival (RMS M3-9-M [5]; plus naive T cells, n=10) was 40% and the “tumor volume compared to ARI-4175+naive T cell recipients” value (RMS M3-9-M [5]; plus primed T cells, difference not significant, n=10, p=0.0755) was “smaller tumors”. For the same compound, the “survival to day 80” value (RMS M3-9-M [5]; plus primed T cells, n=10) was “Eight of ten”, the “development of IL-17 producing Th17 cells” value (Th17 cells) was “stimulate development” and the tumor size (HCT-116 xenograft tumors; [11]) was “further decrease in tumor size”. The tumor growth (HCT-116 xenograft tumors; [12]) was “significantly blocked”, the “tumor size compared to ARI-4175 alone” value (RMS M3-9-M [6]; combination with DC vaccine, n=7, p=0.0481) was “significantly smaller tumors” and the “survival compared to controls” value (RMS M3-9-M [6]; with sham vaccine or DC vaccine, n=7, p<0.001) was “significantly improved survival”. For the same compound, the “cytotoxicity of splenocytes against HCT116 tumor cells” value (HCT116 tumor cells) was “enhanced”, the “tumor regression by day 25” value (RMS; compound by itself, no vaccine, daily gavage 10 mg/kg cycle 1, 5 mg/kg cycles 2 and 3) was 3/8 and the tumor growth (RMS; compound by itself, 10/5 mg/kg daily gavage) was “significantly slowed tumor growth”. For the same compound, the tumor regression (RMS; in combination with RMS DC vaccine, daily gavage 10 mg/kg cycle 1, 5 mg/kg cycles 2 and 3) was 6/8, the mouse survival (RMS; in combination with vaccine, P=0.0045) was “increased mouse survival significantly” and the “induction of cytokines in vivo” value (G-CSF and CXCL1; BALB/c mice, serum) was “very potent inducer of cytokines”. The “stimulation of G-CSF, time course” value (G-CSF and CXCL1; after administration) was “increased until 6 h”, the “CXCL1 induction, time course” value (G-CSF and CXCL1; after administration, had disappeared by 6 h) was “rapidly induced at 3 h” and the “serum IL-18, IL-1β and IFN-γ compared to vehicle” value (G-CSF and CXCL1; much lower levels than G-CSF and CXCL1) was “increased”. For the same compound, the “NK cell expression of FcγRIII receptor CD16” value (NK cells) was “increased”, the “NK cell expression of degranulation marker LAMP-1” value (NK cells) was “increased” and the “activation marker CD69 on human NK cells” value (human NK cells) was “increased”. The “tumor size by day 10 vs saline treated mice” value (RMS M3-9-M [7]; Rag1-/- mice given naive (p=0.0159) or primed (p=0.0079) T cells, n=5) was “significantly smaller tumors”, the tumor size overall (RMS M3-9-M [7]; in combination with tumor-primed T cells) was “smallest tumors overall” and the “cytotoxicity in cell culture” value (DLD-1) was “did not show significant cytotoxicity”. The “outcome of tumor rechallenge” value (RMS M3-9-M [8]) was “initial growth followed by rejection in all mice”, the tumor size (DLD-1 xenograft tumors; [11]) was “further decrease in tumor size” and the tumor growth (DLD-1 xenograft tumors; [12]) was “significantly blocked”. The “cytotoxicity in cell culture” value (HCT-116) was “did not show significant cytotoxicity”, the “body weight over 5 day treatment” value [4] was “significant weight loss” and the survival [4] was 100%.
